Among all 230,000 compounds or so, about 3,600 (1.6%) were called active. Inconclusive means that the source gave no clear call. Such entries were picked first, then a sample of the others. Calls come from the whole dose curve; as a rule, active = well fitted inhibition curve with a large enough effect (not every such curve was filed as active); inconclusive = small, poorly fitted or top-dose-only effect, or another doubt; inactive = no such curve, though single readings can be large or run the other way. Potencies beside an inconclusive call are fits to weak or partial responses and may not hold up.
Target: Lysine-specific demethylase 4E (Homo sapiens) (UniProt B2RXH2)
Test: qHTS Assay for Inhibitors of Human Jumonji Domain Containing 2E (JMJD2E)
Conditions: JMJD2E catalytic domain, FDH-coupled NADH fluorescence (FDH is formaldehyde dehydrogenase); series mostly up to 57.1 µM; activity change, negative = inhibition: at the top concentration
Note: nearly all actives have a fitted effect of over 50% in size.
Potency is the fitted concentration of half-maximal effect; tags give direction and shape of the fitted curve.
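Throughout, for activity change, negative = inhibition: 0% = wells with enzyme and -100% = buffer wells without enzyme.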

Sequence of UniProt B2RXH2 (B2RXH2 whole entry, looked up, the tested form may be a part): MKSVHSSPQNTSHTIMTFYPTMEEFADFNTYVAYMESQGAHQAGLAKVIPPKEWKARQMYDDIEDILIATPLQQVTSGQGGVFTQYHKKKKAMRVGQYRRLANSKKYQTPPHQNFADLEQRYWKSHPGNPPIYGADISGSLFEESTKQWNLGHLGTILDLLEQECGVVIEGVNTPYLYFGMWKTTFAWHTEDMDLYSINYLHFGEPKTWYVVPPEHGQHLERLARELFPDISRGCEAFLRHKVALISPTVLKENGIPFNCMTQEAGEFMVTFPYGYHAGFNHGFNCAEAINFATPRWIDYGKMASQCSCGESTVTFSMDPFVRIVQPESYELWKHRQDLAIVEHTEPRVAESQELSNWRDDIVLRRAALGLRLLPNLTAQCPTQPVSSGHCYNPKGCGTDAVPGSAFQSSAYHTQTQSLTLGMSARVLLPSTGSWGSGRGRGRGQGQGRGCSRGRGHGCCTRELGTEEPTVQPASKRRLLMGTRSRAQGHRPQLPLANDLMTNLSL

Row | Compound | Potency | activity change, negative = inhibition
1 | CCCc1ccc(-c2cc(C(=O)NCCc3ccc(S(N)(=O)=O)cc3)c3ccccc3n2)cc1 | inconclusive: 22.4 µM [inhibitor, partial curve] | 
2 | Cc1ccc(S(=O)(=O)N(C)Cc2ccc(C(=O)N/N=C3\CCCC(=O)C3)cc2)cc1 | inconclusive: 35.5 µM [inhibitor, single point] | 
3 | CN1C(=O)N(C)C2(c3ccccc3)Nn3c(s/c(=C/c4ccccc4F)c3=O)=NC12c1ccccc1 (centres undefined) | inconclusive: 39.8 µM [inhibitor, single point] | 
4 | O=C(NCC1CCCO1)/C(=C/c1ccc(Cl)cc1)NC(=O)c1ccccc1 (centres undefined) | inconclusive: 7.08 µM [inhibitor, single point] | 
5 | CC(=O)Nc1ccc2nc(-c3ccco3)[nH]c2c1 | inconclusive: 31.6 µM [inhibitor, partial curve] | 
6 | CCOC(=O)CN1NC2(CCC(C)CC2)NC1=S (centres undefined) | inconclusive: 39.8 µM [inhibitor, single point] | 
7 | Cc1cc(-c2n[nH]c(=S)n2/N=C/C(Cl)=C/c2ccccc2)n[nH]1 | inconclusive: 31.6 µM [inhibitor, single point] | 
8 | CCOC(=O)c1c2ccc(OCC(=O)NN)cc2n2ccccc12 | inconclusive: 25.1 µM [inhibitor, partial curve] | 
9 | Cc1ccc(C(=O)N2CCCC(CCC(=O)N3CCN(c4ccccn4)CC3)C2)s1 (centres undefined) | inconclusive: 25.1 µM [inhibitor, single point] | 
10 | CCOC(=O)C1=C(c2ccccc2)NC(=S)NC1c1cc([N+](=O)[O-])ccc1OC (centres undefined) |  | inactive: -5.84%
11 | CC(=O)OCC1=C(C(=O)O)N2C(=O)C(NC(=O)CCn3nc(C(F)(F)F)c(Br)c3C3CC3)C2SC1 (centres undefined) |  | inactive: 2.13%
12 | O=C(OCC(O)CO)c1ccccc1Nc1ccnc2cc(Cl)ccc12 (centres undefined) | inconclusive: 35.5 µM [inhibitor, single point] | 
13 | CCOc1ccc(-c2nc(C#N)c(N3CCN(Cc4ccccc4)CC3)o2)cc1 | inconclusive: 31.6 µM [inhibitor, partial curve] | 
14 | O=C(CSc1nnc(NC(=O)c2ccc3c(c2)OCO3)s1)NCc1ccco1 | inconclusive: 35.5 µM [inhibitor, single point] | 
15 | O=C1CC(c2ccccc2)CC(=O)C1Sc1ccc(Cl)cc1 (centres undefined) |  | inactive: 3.42%
16 | CCOC(=O)C1=C(NC(=S)NC(=O)c2ccccc2)c2ccccc2CC1C(C)C (centres undefined) |  | inactive: -1.01%
17 | COc1ccc(C2=CC(c3ccc(OC)c(OC)c3)n3nnnc3N2)c(OC)c1 (centres undefined) | inconclusive: 35.5 µM [inhibitor, single point] | 
18 | Cc1ccc2nc(-c3ccc(NC(=O)CN(c4ccccc4C)S(C)(=O)=O)cc3)sc2c1 | inconclusive: 22.4 µM [inhibitor, partial curve] | 
19 | Cc1ccc(-c2nnc(SCC(=O)NCC3CCCO3)n2C)cc1 (centres undefined) |  | inactive: 0.437%
20 | CCOc1ccc(/C=N/NC(=O)c2ccccc2NC(=O)c2ccc(OC)cc2)cc1 | inconclusive: 35.5 µM [inhibitor, partial curve] | 
21 | O=C(Nc1ccccc1)N1CCc2scc[n+]2-c2ccccc21 | inconclusive: 39.8 µM [inhibitor, single point] | 
22 | CCN(Cc1ccccc1)S(=O)(=O)c1ccc(C(=O)Nc2nnc(C3CC3)o2)cc1 | active: 14.1 µM | 
23 | CCOC(=O)N1CCN(S(=O)(=O)c2ccc(C(=O)Nc3nc4ccc(F)cc4s3)cc2)CC1 | inconclusive: 6.31 µM [inhibitor, single point] | 

Row | Compound | Potency | activity change, negative = inhibition
24 | Cc1onc(-c2ccccc2)c1C(=O)NNC(=S)NC(=O)c1ccc(Cl)cc1Cl | inconclusive: 39.8 µM [inhibitor, single point] | 
25 | CC(/C=N/NC(=O)c1ccc(CN2c3cccc4cccc(c34)S2(=O)=O)cc1)c1ccccc1 (centres undefined) | inconclusive: 28.2 µM [inhibitor, partial curve] | 
26 | O=c1[nH]c(Cc2ccccc2Cl)nc2ccccc12 | inconclusive: 39.8 µM [inhibitor, single point] | 
27 | CCN(CC)c1ccc(/C=N/Nc2nc3ccccc3[nH]2)c(O)c1 | active: 15.8 µM | 
28 | O=C(COc1ccc2ccccc2c1Br)NNC(=O)Nc1ccccc1 |  | inactive: 5.69%
29 | Nc1ccc(-c2nc3cc(N)ccc3n2CCO)cc1 | inconclusive: 28.2 µM [inhibitor, partial curve] | 
30 | CCOc1ccc2c(C)nc(NC3=NC(C)(C)C=C(C)N3)nc2c1 | inconclusive: 31.6 µM [inhibitor, partial curve] | 
31 | COc1ccc(-c2ccc(OC)c([C@H]3[C@H]4C=CC[C@@H](C)[C@@H]4C(=O)N3Cc3ccccc3)c2)cc1 | inconclusive: 35.5 µM [inhibitor, single point] | 
32 | COc1ccccc1NC(=O)C1=C(C)NC2=C(C(=O)CCC2)C1c1ccc2c(c1)OCO2 (centres undefined) | inconclusive: 28.2 µM [inhibitor, partial curve] | 
33 | Cc1cc(NC(=O)/C(C#N)=C/c2ccc(-c3ccc(SC(F)F)cc3)o2)n(-c2ccccc2)n1 | inconclusive: 25.1 µM [inhibitor, partial curve] | 
34 | Nc1nonc1C(=O)N/N=C/c1ccc(-c2cccc(C(=O)O)c2)o1 | inconclusive: 31.6 µM [inhibitor, partial curve] | 
35 | CCCCC(=O)Nc1nnnn1CCC |  | inactive: 1.31%
36 | COc1cc2[nH]c(=S)nc(NC3CCCC3)c2cc1OC | inconclusive: 35.5 µM [inhibitor, single point] | 
37 | O=C(Nc1ccc2ccccc2c1)C(=O)C1C(=O)Nc2ccccc21 (centres undefined) | active: 8.91 µM | 
38 | CCOC(=O)CSc1cccc2cccnc12 | inconclusive: 31.6 µM [inhibitor, partial curve] | 
39 | CCSc1nc2c(c(=O)[nH]1)C(c1cccnc1)C(C(=O)OC(C)C)=C(C)N2 (centres undefined) | inconclusive: 35.5 µM [inhibitor, single point] | 
40 | Cc1nc2cc(NC(=O)C3COc4ccccc4O3)ccc2s1 (centres undefined) | inconclusive: 14.1 µM [inhibitor, partial curve] | 
41 | CN(C)CCNC(=O)/C(=C/c1ccc(-c2ccc(Cl)cc2Cl)o1)NC(=O)c1ccccc1 |  | inactive: -5.02%
42 | O=C1CC(c2ccccc2)n2nc(NC(=O)c3ccccc3)nc2N1 (centres undefined) | inconclusive: 39.8 µM [inhibitor, single point] | 
43 | S=C(NCCc1ccccc1)Nc1ccc(Cl)cc1 |  | inactive: 4.34%
44 | Cc1ccccc1/C=C\c1nc2ccccc2c(=O)[nH]1 | inconclusive: 3.55 µM [inhibitor, full curve] | 
45 | CN1CCN(C2=Nc3cc(F)ccc3Cc3ccccc32)CC1 |  | inactive: 10.5%
46 | Cc1ccc(S(=O)(=O)NCCSc2nnnn2-c2ccccc2)cc1 |  | inactive: 14.7%

Row | Compound | Potency | activity change, negative = inhibition
47 | CC1CN(C2CCN(S(=O)(=O)c3ccc(F)cc3)CC2)CC(C)O1 (centres undefined) | inconclusive: 28.2 µM [inhibitor, single point] | 
48 | O=c1c(Cc2ccc(Cl)cc2Cl)c(O)ccn1Cc1ccc(Cl)cc1 |  | inactive: -2.44%
49 | Oc1c(CN2CCCCC2)cc(COCc2ccccc2)c2cccnc12 |  | inactive: -3.25%
50 | Cc1ccc2cn[nH]c2c1NC(=S)NC(=O)c1ccccc1 |  | inactive: -12.4%
51 | CCc1ccn2cc(-c3cc(-c4ccccc4)no3)nc2c1 | inconclusive: 10 µM [inhibitor, partial curve] | 
52 | Cc1cc(Nc2ccccc2)n2nc(C)c(-c3ccccc3)c2n1 | inconclusive: 28.2 µM [inhibitor, partial curve] | 
53 | O=C(CNCc1ccco1)Nc1ccc(N2CCCCCC2)cc1 | inconclusive: 22.4 µM [inhibitor, single point] | 
54 | CCNC(=O)COC(=O)C1C(C(=O)OCC)=C(C)NC(C)=C1C(=O)OCC | inconclusive: 28.2 µM [inhibitor, single point] | 
55 | CCn1c(C(=O)N2CCC(Cc3ccccc3)CC2)cc2sccc21 | inconclusive: 35.5 µM [inhibitor, partial curve] | 
56 | Cn1c(=O)c2nc3ccccc3nc2n(C)c1=O | inconclusive: 1 µM [inhibitor, full curve] | 
57 | COC(=O)[C@@H]1[C@@H](C)N(CCc2cc(OC)c(OC)c(OC)c2)C(=O)N[C@H]1c1ccccc1 |  | inactive: 2.38% [at 11.4 µM]
58 | c1ccc(-c2nnc3sc(-c4ccncc4)nn23)cc1 |  | inactive: -21.4%
59 | O=C(COc1ccc2c(c1)CCC2)NCc1ccccc1 |  | inactive: -2.18%
60 | O=C(O)c1cccc2c1C(=O)c1cccc3snc-2c13 | inconclusive: 39.8 µM [inhibitor, single point] | 
61 | Cc1sc(NC(=O)Nc2ccccc2)c(C(N)=O)c1C |  | inactive: -7.6%
62 | O=C(CNCC1CCCO1)N1CCCCCC1 (centres undefined) | inconclusive: 3.55 µM [inhibitor, partial curve] | 
63 | CC1(C)CC(CCN(Cc2ccccc2)C(=O)c2ccco2)(c2ccccc2)CCO1 (centres undefined) |  | inactive: 2.23%
64 | Cc1nc(NC(=O)c2ccccc2)sc1-c1csc(Nc2cccc(F)c2)n1 | inconclusive: 39.8 µM [inhibitor, single point] | 
65 | O=C(CNC(=O)c1cccc(Br)c1)N/N=C/c1cc(Br)cc(Br)c1O | inconclusive: 39.8 µM [inhibitor, single point] | 
66 | CSc1cc(-c2ccccc2)n(Cc2ccc(Cl)cc2Cl)c(=O)c1C#N | inconclusive: 39.8 µM [inhibitor, single point] | 
67 | CCCCNC(=O)CC1N=C2c3ccccc3N=C(SCC(=O)Nc3ccccc3OC)N2C1=O (centres undefined) | inconclusive: 31.6 µM [inhibitor, single point] | 
68 | O=C(CC1C(=O)NCCN1Cc1ccoc1)NCCc1ccc(Cl)cc1 (centres undefined) | inconclusive: 39.8 µM [inhibitor, single point] | 
69 | COCCn1c(=NC(=O)c2sc3ccccc3c2Cl)sc2cc(S(N)(=O)=O)ccc21 | inconclusive: 28.2 µM [inhibitor, partial curve] | 

Source: PubChem BioAssay AID2147 (National Center for Advancing Translational Sciences (NCATS), 2009)
